Results are given in words; binding and its absence hold for the method and conditions named. Binding seen in cells or lysates may run through a third protein. Some entries that bind do so weakly or less than the wild type. For some of these results: Tags and fused reporters may be left off the sequences shown.
Key:
[1] = target: T1, Symplekin (endogenous) (Drosophila melanogaster (endogenous in Dmel-2 cells)) (UniProt Q8MSU4); assay: co-IP; endogenous Dcr2 or Symplekin immunoprecipitated from 175 ug refined nuclear extract of Dmel-2 cells, dialysed in Buffer D (20 mM HEPES/KOH pH 7.9, 20% glycerol, 100 mM KCl, 0.2 mM EDTA, 0.5 mM DTT); western blot
T1 sequence: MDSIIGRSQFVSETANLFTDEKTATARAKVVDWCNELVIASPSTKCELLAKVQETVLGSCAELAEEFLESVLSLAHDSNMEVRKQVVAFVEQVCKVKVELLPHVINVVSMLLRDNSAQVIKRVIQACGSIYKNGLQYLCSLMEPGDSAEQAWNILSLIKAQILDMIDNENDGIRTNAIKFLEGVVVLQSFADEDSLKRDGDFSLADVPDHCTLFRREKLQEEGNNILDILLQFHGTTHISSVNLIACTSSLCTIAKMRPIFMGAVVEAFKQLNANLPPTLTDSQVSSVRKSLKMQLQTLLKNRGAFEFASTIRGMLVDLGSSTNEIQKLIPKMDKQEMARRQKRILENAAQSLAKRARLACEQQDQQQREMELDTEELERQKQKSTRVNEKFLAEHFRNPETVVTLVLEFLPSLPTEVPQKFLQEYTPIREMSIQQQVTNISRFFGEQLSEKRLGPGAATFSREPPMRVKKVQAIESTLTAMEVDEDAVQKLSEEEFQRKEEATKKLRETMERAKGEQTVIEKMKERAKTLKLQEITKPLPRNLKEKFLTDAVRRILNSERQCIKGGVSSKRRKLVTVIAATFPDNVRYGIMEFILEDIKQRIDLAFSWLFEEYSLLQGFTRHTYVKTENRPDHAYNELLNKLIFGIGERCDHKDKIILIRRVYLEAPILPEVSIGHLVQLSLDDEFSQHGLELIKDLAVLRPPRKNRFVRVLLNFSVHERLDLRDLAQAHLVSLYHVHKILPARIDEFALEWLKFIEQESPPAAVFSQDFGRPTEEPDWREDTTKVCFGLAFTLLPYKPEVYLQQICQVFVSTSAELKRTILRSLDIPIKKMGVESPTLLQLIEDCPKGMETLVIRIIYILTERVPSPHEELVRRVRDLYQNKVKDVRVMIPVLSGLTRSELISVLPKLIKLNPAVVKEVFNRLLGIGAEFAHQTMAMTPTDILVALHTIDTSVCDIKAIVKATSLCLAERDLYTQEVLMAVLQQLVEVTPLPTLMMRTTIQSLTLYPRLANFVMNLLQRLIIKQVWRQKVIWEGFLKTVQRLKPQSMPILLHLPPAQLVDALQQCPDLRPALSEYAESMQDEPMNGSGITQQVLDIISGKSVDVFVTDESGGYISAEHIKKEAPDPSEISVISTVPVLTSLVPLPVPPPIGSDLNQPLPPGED

The chains behind the UniProt entries cited, without tags or fusion partners.
UniProt A1ZAW0: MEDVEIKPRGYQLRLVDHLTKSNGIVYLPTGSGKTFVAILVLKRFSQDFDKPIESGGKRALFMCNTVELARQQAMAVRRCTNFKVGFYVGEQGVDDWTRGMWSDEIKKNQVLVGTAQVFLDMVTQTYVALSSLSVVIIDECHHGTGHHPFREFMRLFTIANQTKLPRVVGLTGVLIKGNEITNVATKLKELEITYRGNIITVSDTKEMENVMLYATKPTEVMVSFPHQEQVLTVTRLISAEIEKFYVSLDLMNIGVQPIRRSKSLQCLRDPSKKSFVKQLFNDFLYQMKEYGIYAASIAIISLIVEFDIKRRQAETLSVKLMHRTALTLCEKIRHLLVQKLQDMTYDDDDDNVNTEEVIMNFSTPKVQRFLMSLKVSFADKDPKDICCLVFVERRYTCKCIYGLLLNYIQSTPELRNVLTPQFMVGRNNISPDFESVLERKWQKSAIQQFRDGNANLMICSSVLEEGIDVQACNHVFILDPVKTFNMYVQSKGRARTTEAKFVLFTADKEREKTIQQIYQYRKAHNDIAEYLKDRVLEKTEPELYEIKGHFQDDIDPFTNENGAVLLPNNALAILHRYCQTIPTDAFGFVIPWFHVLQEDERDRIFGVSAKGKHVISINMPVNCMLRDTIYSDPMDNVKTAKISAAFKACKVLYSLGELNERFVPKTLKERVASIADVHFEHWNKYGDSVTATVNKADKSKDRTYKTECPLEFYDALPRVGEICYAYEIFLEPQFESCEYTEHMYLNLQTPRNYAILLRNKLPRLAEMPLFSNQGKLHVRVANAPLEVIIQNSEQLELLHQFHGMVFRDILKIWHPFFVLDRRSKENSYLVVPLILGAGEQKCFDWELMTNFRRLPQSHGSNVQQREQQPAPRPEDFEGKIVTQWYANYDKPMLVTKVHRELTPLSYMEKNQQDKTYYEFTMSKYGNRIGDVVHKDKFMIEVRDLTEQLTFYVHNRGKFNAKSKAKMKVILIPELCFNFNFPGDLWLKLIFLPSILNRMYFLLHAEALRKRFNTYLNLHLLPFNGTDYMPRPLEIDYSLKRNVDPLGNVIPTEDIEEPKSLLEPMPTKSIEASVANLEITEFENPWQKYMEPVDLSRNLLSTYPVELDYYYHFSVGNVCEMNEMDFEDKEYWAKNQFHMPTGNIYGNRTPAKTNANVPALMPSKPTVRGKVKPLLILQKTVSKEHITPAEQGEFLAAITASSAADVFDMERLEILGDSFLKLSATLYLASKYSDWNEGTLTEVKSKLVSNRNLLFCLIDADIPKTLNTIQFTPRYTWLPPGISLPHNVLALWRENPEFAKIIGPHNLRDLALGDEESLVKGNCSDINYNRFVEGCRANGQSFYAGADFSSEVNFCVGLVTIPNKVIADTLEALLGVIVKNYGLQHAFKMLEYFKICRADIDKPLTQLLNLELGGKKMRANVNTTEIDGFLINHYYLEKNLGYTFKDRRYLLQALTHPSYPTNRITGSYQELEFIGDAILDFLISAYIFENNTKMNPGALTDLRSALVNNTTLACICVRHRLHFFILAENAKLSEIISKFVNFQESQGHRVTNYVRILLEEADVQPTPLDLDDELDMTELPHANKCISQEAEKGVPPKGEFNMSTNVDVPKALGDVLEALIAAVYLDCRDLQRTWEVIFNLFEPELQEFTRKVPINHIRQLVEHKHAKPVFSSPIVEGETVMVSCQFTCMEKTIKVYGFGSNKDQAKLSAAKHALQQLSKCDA

[2] = target: T2, HA-Symp (272-1165) (Drosophila melanogaster) (UniProt Q8MSU4); assay: co-IP; anti-HA immunoprecipitation of HA-tagged proteins stably expressed in Dmel-2 cells, from cell lysates; western blot for endogenous Dcr2
T2 sequence: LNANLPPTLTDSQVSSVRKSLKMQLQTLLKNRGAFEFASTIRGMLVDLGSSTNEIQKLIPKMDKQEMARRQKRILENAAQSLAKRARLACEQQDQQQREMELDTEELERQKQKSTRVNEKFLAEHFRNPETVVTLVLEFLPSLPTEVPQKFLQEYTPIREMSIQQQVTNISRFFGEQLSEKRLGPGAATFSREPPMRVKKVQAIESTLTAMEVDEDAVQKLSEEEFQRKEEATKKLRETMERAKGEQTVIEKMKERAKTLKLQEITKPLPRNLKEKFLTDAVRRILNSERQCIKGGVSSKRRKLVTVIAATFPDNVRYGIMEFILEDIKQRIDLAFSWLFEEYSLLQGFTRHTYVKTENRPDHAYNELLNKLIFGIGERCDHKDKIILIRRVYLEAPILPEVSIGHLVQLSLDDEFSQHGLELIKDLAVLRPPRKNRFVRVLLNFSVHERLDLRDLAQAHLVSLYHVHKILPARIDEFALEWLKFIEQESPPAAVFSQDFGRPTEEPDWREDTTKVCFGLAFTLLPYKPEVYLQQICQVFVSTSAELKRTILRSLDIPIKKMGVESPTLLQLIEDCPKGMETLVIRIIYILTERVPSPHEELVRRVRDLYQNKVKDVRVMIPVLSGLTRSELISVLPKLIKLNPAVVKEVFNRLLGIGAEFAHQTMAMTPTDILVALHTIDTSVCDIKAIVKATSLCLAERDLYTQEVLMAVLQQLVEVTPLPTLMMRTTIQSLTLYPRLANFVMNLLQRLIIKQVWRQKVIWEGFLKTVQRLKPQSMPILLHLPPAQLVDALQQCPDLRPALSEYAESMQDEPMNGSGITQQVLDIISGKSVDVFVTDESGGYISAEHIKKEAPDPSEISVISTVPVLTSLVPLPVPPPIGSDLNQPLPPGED

[3] = target: T3, HA-tagged full-length Symplekin (Drosophila melanogaster) (UniProt Q8MSU4); assay: as above
T3 sequence: T1 sequence

[4] = target: T4, HA-Symp (1-271) (Drosophila melanogaster) (UniProt Q8MSU4); assay: as above
T4 sequence: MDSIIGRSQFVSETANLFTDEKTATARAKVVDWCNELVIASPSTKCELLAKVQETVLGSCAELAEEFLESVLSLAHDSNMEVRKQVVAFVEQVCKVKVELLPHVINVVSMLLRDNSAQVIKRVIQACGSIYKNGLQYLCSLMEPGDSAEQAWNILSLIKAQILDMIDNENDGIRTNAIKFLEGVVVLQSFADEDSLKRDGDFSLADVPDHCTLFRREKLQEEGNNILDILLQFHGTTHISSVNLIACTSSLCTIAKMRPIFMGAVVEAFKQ

binding [1]: binds
binding [2]: no binding
binding [3]: binds
binding [4]: binds
Substance: Dicer2 (endogenous) (from UniProt A1ZAW0 1-1722) (enzyme)
